Test results from publication PMC7835222.
No constants are given. Whether binding was seen depends on the method and setting. For some assays here: In cells and extracts the contact can be indirect. Some entries that bind do so weakly or less than the wild type. Where a sequence is shown, tags or fusion partners need not be part of it.

Key:
[1] = molecular target: Gal4 DNA-binding domain fusion of full-length human PRMT3 (pGBKT7-PRMT3) (human) (UniProt O60678); experiment: two-hybrid; library screen, Matchmaker Gold Yeast Two-Hybrid System; full-length PRMT3 (pGBKT7-PR-FL) as bait against the Mate & Plate universal human normalized cDNA library
[2] = molecular target: GST-tagged PRMT3 full-length protein (pGEX-PR-FL) (human) (UniProt O60678); experiment: pull-down; 15 µg GST-tagged PRMT3 on Glutathione Sepharose, lysates of HEK293 cells overexpressing HA-tagged ALDH members; 4 °C, 10 h; blot with HA antibody; only the target purified
[3] = molecular target: Gal4 DNA-binding domain fusion of full-length human PRMT3 (pGBKT7-PRMT3) (human) (UniProt O60678); experiment: two-hybrid; pGBKT7-PRMT3 and pGADT7-ALDH1A1 co-transformed in S. cerevisiae; selection medium with Aureobasidin-A and X-α-Gal lacking Trp and Leu, or Trp, Leu, His and Ade (two or four reporter genes)
[4] = molecular target: GFP-tagged PRMT3 full-length protein (pEGFP-PR-FL) (human) (UniProt O60678); experiment: co-IP; HEK293 cells co-transfected; GFP-tagged protein precipitated with GFP Trap A beads, 4 °C, 10 h; 10 mM Tris pH 7.5, 150 mM NaCl, 0.5 mM EDTA, 0.1% NP-40; blot with Myc (forward) or HA (reverse) antibody
[5] = molecular target: T1, GST-tagged C-terminal region of ALDH1A1 (pGEX-AL-CTR) (human) (UniProt P00352); experiment: pull-down; 15 µg GST-tagged ALDH1A1 (full length or truncated) on Glutathione Sepharose, lysates of HEK293 cells overexpressing GFP-tagged PRMT proteins; 4 °C, 10 h; blot with GFP antibody; only the target purified
T1 sequence: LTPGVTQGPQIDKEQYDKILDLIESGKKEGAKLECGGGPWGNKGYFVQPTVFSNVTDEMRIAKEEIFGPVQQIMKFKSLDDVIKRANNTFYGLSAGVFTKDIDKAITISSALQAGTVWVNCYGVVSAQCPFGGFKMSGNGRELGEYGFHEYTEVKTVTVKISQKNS

[6] = molecular target: T2, GST-tagged N-terminal region of ALDH1A1 (pGEX-AL-NTR) (human) (UniProt P00352); experiment: as above
T2 sequence: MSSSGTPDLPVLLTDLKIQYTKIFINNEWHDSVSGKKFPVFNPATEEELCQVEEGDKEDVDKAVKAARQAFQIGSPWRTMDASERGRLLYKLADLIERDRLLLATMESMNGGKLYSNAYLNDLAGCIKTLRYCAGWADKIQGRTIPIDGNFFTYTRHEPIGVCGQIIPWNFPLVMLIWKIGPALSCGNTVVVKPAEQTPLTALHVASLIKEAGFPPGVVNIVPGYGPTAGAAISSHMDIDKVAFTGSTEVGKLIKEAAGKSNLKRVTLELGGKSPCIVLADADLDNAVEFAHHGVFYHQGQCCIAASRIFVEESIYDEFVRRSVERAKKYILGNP

B1: GAL4 activation domain fusion of the C-terminal region (amino acid residues 371–501) of Retinal dehydrogenase 1 (ALDH1A1), library clone (domain or fragment, UniProt P00352 371-501)
chain: GGGPWGNKGYFVQPTVFSNVTDEMRIAKEEIFGPVQQIMKFKSLDDVIKRANNTFYGLSAGVFTKDIDKAITISSALQAGTVWVNCYGVVSAQCPFGGFKMSGNGRELGEYGFHEYTEVKTVTVKISQKNS
Q: Which binding [1] does the source give for B1 here?
A: binds

B2: HA-tagged ALDH1A1 (pCDNA4-HA-AL-FL) (enzyme, UniProt P00352 1-501)
chain: MSSSGTPDLPVLLTDLKIQYTKIFINNEWHDSVSGKKFPVFNPATEEELCQVEEGDKEDVDKAVKAARQAFQIGSPWRTMDASERGRLLYKLADLIERDRLLLATMESMNGGKLYSNAYLNDLAGCIKTLRYCAGWADKIQGRTIPIDGNFFTYTRHEPIGVCGQIIPWNFPLVMLIWKIGPALSCGNTVVVKPAEQTPLTALHVASLIKEAGFPPGVVNIVPGYGPTAGAAISSHMDIDKVAFTGSTEVGKLIKEAAGKSNLKRVTLELGGKSPCIVLADADLDNAVEFAHHGVFYHQGQCCIAASRIFVEESIYDEFVRRSVERAKKYILGNPLTPGVTQGPQIDKEQYDKILDLIESGKKEGAKLECGGGPWGNKGYFVQPTVFSNVTDEMRIAKEEIFGPVQQIMKFKSLDDVIKRANNTFYGLSAGVFTKDIDKAITISSALQAGTVWVNCYGVVSAQCPFGGFKMSGNGRELGEYGFHEYTEVKTVTVKISQKNS
Q: Which binding [2] does the source give for B2 here?
A: binds

B3: HA-ALDH1A2 (pCDNA4-HA-ALDH1A2) (enzyme, UniProt O94788 1-518)
chain: MTSSKIEMPGEVKADPAALMASLHLLPSPTPNLEIKYTKIFINNEWQNSESGRVFPVYNPATGEQVCEVQEADKADIDKAVQAARLAFSLGSVWRRMDASERGRLLDKLADLVERDRAVLATMESLNGGKPFLQAFYVDLQGVIKTFRYYAGWADKIHGMTIPVDGDYFTFTRHEPIGVCGQIIPWNFPLLMFAWKIAPALCCGNTVVIKPAEQTPLSALYMGALIKEAGFPPGVINILPGYGPTAGAAIASHIGIDKIAFTGSTEVGKLIQEAAGRSNLKRVTLELGGKSPNIIFADADLDYAVEQAHQGVFFNQGQCCTAGSRIFVEESIYEEFVRRSVERAKRRVVGSPFDPTTEQGPQIDKKQYNKILELIQSGVAEGAKLECGGKGLGRKGFFIEPTVFSNVTDDMRIAKEEIFGPVQEILRFKTMDEVIERANNSDFGLVAAVFTNDINKALTVSSAMQAGTVWINCYNALNAQSPFGGFKMSGNGREMGEFGLREYSEVKTVTVKIPQKNS
Q: For B3, which binding [2] is on record?
A: binds weakly

B4: HA-ALDH1A3 (pCDNA4-HA-ALDH1A3) (enzyme, UniProt P47895 1-512)
chain: MATANGAVENGQPDRKPPALPRPIRNLEVKFTKIFINNEWHESKSGKKFATCNPSTREQICEVEEGDKPDVDKAVEAAQVAFQRGSPWRRLDALSRGRLLHQLADLVERDRATLAALETMDTGKPFLHAFFIDLEGCIRTLRYFAGWADKIQGKTIPTDDNVVCFTRHEPIGVCGAITPWNFPLLMLVWKLAPALCCGNTMVLKPAEQTPLTALYLGSLIKEAGFPPGVVNIVPGFGPTVGAAISSHPQINKIAFTGSTEVGKLVKEAASRSNLKRVTLELGGKNPCIVCADADLDLAVECAHQGVFFNQGQCCTAASRVFVEEQVYSEFVRRSVEYAKKRPVGDPFDVKTEQGPQIDQKQFDKILELIESGKKEGAKLECGGSAMEDKGLFIKPTVFSEVTDNMRIAKEEIFGPVQPILKFKSIEEVIKRANSTDYGLTAAVFTKNLDKALKLASALESGTVWINCYNALYAQAPFGGFKMSGNGRELGEYALAEYTEVKTVTIKLGDKNP
Q: B4 was tested. Which binding [2] did it give?
A: binds weakly

B5: HA-ALDH3A1 (pCDNA4-HA-ALDH3A1) (enzyme, UniProt P30838 1-453)
chain: MSKISEAVKRARAAFSSGRTRPLQFRIQQLEALQRLIQEQEQELVGALAADLHKNEWNAYYEEVVYVLEEIEYMIQKLPEWAADEPVEKTPQTQQDELYIHSEPLGVVLVIGTWNYPFNLTIQPMVGAIAAGNSVVLKPSELSENMASLLATIIPQYLDKDLYPVINGGVPETTELLKERFDHILYTGSTGVGKIIMTAAAKHLTPVTLELGGKSPCYVDKNCDLDVACRRIAWGKFMNSGQTCVAPDYILCDPSIQNQIVEKLKKSLKEFYGEDAKKSRDYGRIISARHFQRVMGLIEGQKVAYGGTGDAATRYIAPTILTDVDPQSPVMQEEIFGPVLPIVCVRSLEEAIQFINQREKPLALYMFSSNDKVIKKMIAETSSGGVAANDVIVHITLHSLPFGGVGNSGMGSYHGKKSFETFSHRRSCLVRPLMNDEGLKVRYPPSPAKMTQH
Q: For B5, which binding [2] is on record?
A: binds weakly

B6: GAL4 activation domain fusion of full-length human ALDH1A1 (pGADT7-ALDH1A1) (enzyme, UniProt P00352 1-501)
chain: MSSSGTPDLPVLLTDLKIQYTKIFINNEWHDSVSGKKFPVFNPATEEELCQVEEGDKEDVDKAVKAARQAFQIGSPWRTMDASERGRLLYKLADLIERDRLLLATMESMNGGKLYSNAYLNDLAGCIKTLRYCAGWADKIQGRTIPIDGNFFTYTRHEPIGVCGQIIPWNFPLVMLIWKIGPALSCGNTVVVKPAEQTPLTALHVASLIKEAGFPPGVVNIVPGYGPTAGAAISSHMDIDKVAFTGSTEVGKLIKEAAGKSNLKRVTLELGGKSPCIVLADADLDNAVEFAHHGVFYHQGQCCIAASRIFVEESIYDEFVRRSVERAKKYILGNPLTPGVTQGPQIDKEQYDKILDLIESGKKEGAKLECGGGPWGNKGYFVQPTVFSNVTDEMRIAKEEIFGPVQQIMKFKSLDDVIKRANNTFYGLSAGVFTKDIDKAITISSALQAGTVWVNCYGVVSAQCPFGGFKMSGNGRELGEYGFHEYTEVKTVTVKISQKNS
Q: How did the binding [3] turn out when B6 was run?
A: binds

B7: Myc-tagged ALDH1A1 (pCDNA4-myc-AL-FL) (enzyme, UniProt P00352 1-501)
chain: MSSSGTPDLPVLLTDLKIQYTKIFINNEWHDSVSGKKFPVFNPATEEELCQVEEGDKEDVDKAVKAARQAFQIGSPWRTMDASERGRLLYKLADLIERDRLLLATMESMNGGKLYSNAYLNDLAGCIKTLRYCAGWADKIQGRTIPIDGNFFTYTRHEPIGVCGQIIPWNFPLVMLIWKIGPALSCGNTVVVKPAEQTPLTALHVASLIKEAGFPPGVVNIVPGYGPTAGAAISSHMDIDKVAFTGSTEVGKLIKEAAGKSNLKRVTLELGGKSPCIVLADADLDNAVEFAHHGVFYHQGQCCIAASRIFVEESIYDEFVRRSVERAKKYILGNPLTPGVTQGPQIDKEQYDKILDLIESGKKEGAKLECGGGPWGNKGYFVQPTVFSNVTDEMRIAKEEIFGPVQQIMKFKSLDDVIKRANNTFYGLSAGVFTKDIDKAITISSALQAGTVWVNCYGVVSAQCPFGGFKMSGNGRELGEYGFHEYTEVKTVTVKISQKNS
Q: B7 was tested. Which binding [4] did it give?
A: binds

B8: GFP-tagged C-terminal catalytic domain of PRMT3 protein (pEGFP-PR-CTR) (domain or fragment, UniProt O60678-1 186-531)
chain: MKQFAQDFVMHTDVRTCSSSTSVIADLQEDEDGVYFSSYGHYGIHEEMLKDKIRTESYRDFIYQNPHIFKDKVVLDVGCGTGILSMFAAKAGAKKVLGVDQSEILYQAMDIIRLNKLEDTITLIKGKIEEVHLPVEKVDVIISEWMGYFLLFESMLDSVLYAKNKYLAKGGSVYPDICTISLVAVSDVNKHADRIAFWDDVYGFKMSCMKKAVIPEAVVEVLDPKTLISEPCGIKHIDCHTTSISDLEFSSDFTLKITRTSMCTAIAGYFDIYFEKNCHNRVVFSTGPQSTKTHWKQTVFLLEKPFSVKAGEALKGKVTVHKNKKDPRSLTVTLTLNNSTQTYGLQ
Q: Which results are given for B8?
A: binding [5]: binds; binding [6]: no binding

B9: GFP-tagged N-terminal region of PRMT3 protein (pEGFP-PR-NTR) (domain or fragment, UniProt O60678-1 1-186)
chain: MCSLASGATGGRGAVENEEDLPELSDSGDEAAWEDEDDADLPHGKQQTPCLFCNRLFTSAEETFSHCKSEHQFNIDSMVHKHGLEFYGYIKLINFIRLKNPTVEYMNSIYNPVPWEKEEYLKPVLEDDLLLQFDVEDLYEPVSVPFSYPNGLSENTSVVEKLKHMEARALSAEAALARAREDLQKM
Q: Which results are given for B9?
A: binding [5]: no binding; binding [6]: no binding
